The RNAGym collection of RNA variant scans (doi:10.1093/nar/gkz1192)
Read counts are not given, so values of variants with three or more changes are uncertain.

B1: CPEB3 Ribozyme (parent)
chain: UAACAGGGGGCCACAGCAGAAGCGUUCACGUCGCAGCCCCUGUCAGAUUCUGGUGAAUCUGCGAAUUCUGCUGUAUAUCUC

Variants of: B1
Experiment: self-cleavage, relative activity (ratio to wild type); higher = more cleavage; in vitro, sequencing
Outline: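 CPEB3 self-cleaving ribozyme mutant libraries were made by rounds of error-prone PCR, barcoded, and transcribed in vitro with T7 RNA polymerase for 5 hours at 37°C. Cleavage occurred during transcription and a 15 min DNase I step before EDTA stop. RNAs were reverse transcribed with template switching and Illumina-sequenced, with DNA sequencing mapping barcodes to variants. Relative activity is the variant's cleaved/total read fraction divided by wild type's (minimum 5 reads), averaged across three batches.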

Variant	self-cleavage
U1A A35U A56G	0.18
U1A A2U U26C U60C	0.38
U1A A13U A21G U41A A57U C71U	0.05
U1A A15U U25C U43A U49C	0.11
U1A A2G U49C U76A	0.26
U1A A20C A45G A56G	0.35
U1A A3C U26C U69C	0.31
U1A A2G U31A U48C U74C	0.15
U1A A2G U25G A57G U80C	0.94
U1A C23G U76C A77U	0.21
U1A A3U U25C U69C U72C	0.09
U1A A21U U26A U69C	0.09
U1A A20G U31A G33A C39U	0.28
U1A A2G C14U A18G A65G	0.25
U1A A21G C29U C40U A45G	0.08
U1A A2G G9U A18U U25A A45G	0.14
U1A A20U A64G U69C	0.08
U1A A20G A35G A47G U54C A64G	1.13
U1A A13G A15G U26A A56G A65U U72C	0.12
U1A A5C U41C A56U	0.37
U1A A45G U51A	0.54

Variant	self-cleavage
U1A A56G A75G	0.6
U1A A2U U78A U80A	1.13
U1A A3U A18C U41A U60C A77G U80A	0.15
U1A A3G A20U U26C U72C A75U	0.64
U1A A3C U72A	1.22
U1A A20G U60C U72C U78C	0.32
U1A C11U A21G	0.37
U1A A13G U31C U49C U74A	0.32
U1A A18U U43C G46A U49C U54C U69C	0.09
U1A A5G A13G A18U A57G A77G	0.22
U1A C11U U31G A45U U80C	0.06
U1A A18G A35G U72C U78A	1.29
U1A A57G A75G	0.57
U1A A15G A20U A77U	0.11
U1A A3G A45G G70A U78C	0.73
U1A A2G A20G	0.69
U1A A2U C32U U58C C62U G73A	0.19
U1A A20G A21G U78A	0.51
U1A A35G G70A U74C	1.25
U1A A3G A28G C32A U41C	0.09
U1A A2C G9A U25A C32A U58C	0.19

Variant	self-cleavage
U1A A35U U69A	0.33
U1A A20G A35G U54C U72C U76A A77G	1.19
U1A A47G U49A	0.24
U1A A15G A35U U80C	0.49
U1A A5U G9U C71U U80C	0.59
U1A A18C A75G	0.36
U1A C11U A28G U72A U80C	0.46
U1A A3U U48C	0.75
U1A A15G A45G U72C	0.93
U1A A5C U26C U54A U58A A64U	0.13
U1A C12U A21G U25C A28G U74C	0.03
U1A C4U A13U U41C C71A	0.62
U1A A13U G22A U31A A35G A45C U48C	0.06
U1A C11U U41A G42C C62U G73A	0.06
U1A A47G A57C U74C	0.37
U1A A3G A35G U49C U69C	0.95
U1A A13G U43G A64U U72A A75G U78C	0.03
U1A A28U C38U U54C	0.57
U1A A20G A56G	0.41
U1A A3C A47U A57U A64G	0.69
U1A A18U G19C U41C U80C	0.4

Variant	self-cleavage
U1A A5U G8A A18G U60C	0.07
U1A C11A U25C U51A	0.08
U1A C23A A56G A64G U69C U80C	0.15
U1A A45U U58G U60A	0.21
U1A A35G A64G A65G	0.58
U1A A18C U26C A35G U43C U51C	0.05
U1A A18G U25C C27U U60C C62A	0.06
U1A A13G A28G G42A	0.25
U1A A2C A35G G52A	1.23
U1A A65G U72C	0.25
U1A A5U G19A	0.56
U1A A18U U26A U41A	0.28
U1A A15U U25C U51A U72G	0.35
U1A A18U U51C C59G A64U	0.18
U1A A20U A56G A64G U72A	0.11
U1A C11U G63C U72A	0.12
U1A A15G U69C	0.35
U1A A28G U51C G61C	0.1
U1A A2G C11G A13U U54A	0.78
U1A C23A U51A A56U U60A	0.05
U1A A35G A64G	1.23
